The full ranking holds about 81,000 sequences; the median of “one-hybrid fitness for binding parS DNA” is about -0.17, and the highest 2% start at about 0.51. Some of the results follow.
B1: Caulobacter ParB omega fusion; a variant is named by its letters at X, in order, B8GW30 (parent)
chain: MESVVVGEPGMSEGRRGLGRGLSALLGEVDAAPAQAPGEQLGGSREAPIEILQRNPDQPRRTFREEDLEDLSNSIREKGVLQPILVRPSPDTAGEYQIVAGERAWRAAQRAGLKTVPIMVRELDDLAVLEIGIIENVQRADLNVLEEALSYKVLMEKFERTQENIAQTIGKSXSHVANXMRLLXLPDEVQSYLVSGELTAXHARAIAAAADPVALAKQIIEGGLSVRETEALARKAPNLSAGKSKGGRPPRVKDTDTQALESDLSSVLGLDVSIDHRGSTGTLTITYATLEQLDDLCNRLTRGI

Variants of: B1
Assay: one-hybrid fitness for binding parS DNA (scaled: cognate 1, non-cognate 0); higher = stronger binding
Conditions: with parS DNA site
How it was run: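 Bacterial one-hybrid selection in E. coli USO rpoZ- hisB- pyrF- with a HIS3 reporter carrying the site 19 bp from the promoter, screening Caulobacter ParB libraries with four specificity codons randomised (NNS). Cells grew 48 hours at 37°C on M9-minus-histidine plus 0.1 mM IPTG and 5 mM 3-AT. Plasmids before and after selection were Illumina-sequenced, three replicate libraries pooled, and variants under 10 reads dropped. Fitness is the log change in variant-to-wild-type read ratio, rescaled to cognate 1, non-cognate 0.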

| Variant | one-hybrid fitness for binding parS DNA |
| --- | --- |
| VPRP | ≤ 0.2 |
| TLDC | ≤ 0.2 |
| EAWM | ≤ 0.2 |
| STIT | ≤ 0.2 |
| RHNN | 0.386 |
| TMMT | ≤ 0.2 |
| RKKN | 0.356 |
| RYAV | ≤ 0.2 |
| LITW | ≤ 0.2 |
| YLAI | ≤ 0.2 |
| RELN | ≤ 0.2 |
| QARE | ≤ 0.2 |
| QISQ | ≤ 0.2 |
| LNVN | ≤ 0.2 |
| RCVR | ≤ 0.2 |
| RMFD | ≤ 0.2 |
| GKME | ≤ 0.2 |
| WVMT | ≤ 0.2 |
| LKSL | ≤ 0.2 |
| SKPT | ≤ 0.2 |
| GCRA | ≤ 0.2 |
| HHRA | ≤ 0.2 |
| QKVT | ≤ 0.2 |
| CHAV | ≤ 0.2 |
| HEPS | ≤ 0.2 |

| Variant | one-hybrid fitness for binding parS DNA |
| --- | --- |
| VHIL | ≤ 0.2 |
| HSSS | ≤ 0.2 |
| HTVR | ≤ 0.2 |
| TQRC | ≤ 0.2 |
| EYPT | ≤ 0.2 |
| WAWW | ≤ 0.2 |
| QFPR | ≤ 0.2 |
| SILW | ≤ 0.2 |
| AHGV | ≤ 0.2 |
| TFNK | ≤ 0.2 |
| YIPL | ≤ 0.2 |
| SRMG | ≤ 0.2 |
| KIAR | ≤ 0.2 |
| QVTN | ≤ 0.2 |
| HWAN | ≤ 0.2 |
| SNVL | ≤ 0.2 |
| PGNT | ≤ 0.2 |
| LQAW | ≤ 0.2 |
| IESS | ≤ 0.2 |
| ASGK | ≤ 0.2 |
| RIEY | 0.338 |
| VESV | 0.212 |
| CSLY | ≤ 0.2 |
| EYRR | ≤ 0.2 |
| RWSY | 0.338 |

| Variant | one-hybrid fitness for binding parS DNA |
| --- | --- |
| RAMS | 1.02 |
| QGAD | ≤ 0.2 |
| GGQL | ≤ 0.2 |
| TYDW | ≤ 0.2 |
| RLMC | 0.992 |
| HHNG | ≤ 0.2 |
| DATT | ≤ 0.2 |
| RVAN | 0.452 |
| TDMF | ≤ 0.2 |
| TGYH | ≤ 0.2 |
| HGGG | ≤ 0.2 |
| FFLI | ≤ 0.2 |
| SLRA | ≤ 0.2 |
| ADDG | ≤ 0.2 |
| AEKG | ≤ 0.2 |
| RNCA | 0.348 |
| GWLP | ≤ 0.2 |
| RSFK | ≤ 0.2 |
| GFMT | ≤ 0.2 |
| RWYT | 0.596 |
| ARLR | ≤ 0.2 |
| KVDN | ≤ 0.2 |
| SVSC | ≤ 0.2 |
| KQRS | ≤ 0.2 |
| YRSQ | ≤ 0.2 |

| Variant | one-hybrid fitness for binding parS DNA |
| --- | --- |
| PGLT | ≤ 0.2 |
| QNYC | ≤ 0.2 |
| RAFW | 0.243 |
| CKRK | ≤ 0.2 |
| DCCG | ≤ 0.2 |
| RIQF | 0.272 |
| LLME | ≤ 0.2 |
| TWHC | ≤ 0.2 |
| VQVG | ≤ 0.2 |
| LREQ | ≤ 0.2 |
| GVNR | ≤ 0.2 |
| WRRR | ≤ 0.2 |
| QERN | ≤ 0.2 |
| RVEF | ≤ 0.2 |
| CRQS | ≤ 0.2 |
| NFVR | ≤ 0.2 |
| GGCW | ≤ 0.2 |
| CVMG | ≤ 0.2 |
| PMNV | ≤ 0.2 |
| KCSS | ≤ 0.2 |
| ANRW | ≤ 0.2 |
| APSR | ≤ 0.2 |
| LTPV | ≤ 0.2 |

— a collection of fitness landscapes (doi:10.1016/j.celrep.2020.107928)
